According to article PMC4121317:
Results are given in words; binding and its absence hold for the method and conditions named. Some binding calls cover weakened binding; strength is not graded here.

T1: Cul4 (S. pombe) (UniProt O14122)
T1 sequence: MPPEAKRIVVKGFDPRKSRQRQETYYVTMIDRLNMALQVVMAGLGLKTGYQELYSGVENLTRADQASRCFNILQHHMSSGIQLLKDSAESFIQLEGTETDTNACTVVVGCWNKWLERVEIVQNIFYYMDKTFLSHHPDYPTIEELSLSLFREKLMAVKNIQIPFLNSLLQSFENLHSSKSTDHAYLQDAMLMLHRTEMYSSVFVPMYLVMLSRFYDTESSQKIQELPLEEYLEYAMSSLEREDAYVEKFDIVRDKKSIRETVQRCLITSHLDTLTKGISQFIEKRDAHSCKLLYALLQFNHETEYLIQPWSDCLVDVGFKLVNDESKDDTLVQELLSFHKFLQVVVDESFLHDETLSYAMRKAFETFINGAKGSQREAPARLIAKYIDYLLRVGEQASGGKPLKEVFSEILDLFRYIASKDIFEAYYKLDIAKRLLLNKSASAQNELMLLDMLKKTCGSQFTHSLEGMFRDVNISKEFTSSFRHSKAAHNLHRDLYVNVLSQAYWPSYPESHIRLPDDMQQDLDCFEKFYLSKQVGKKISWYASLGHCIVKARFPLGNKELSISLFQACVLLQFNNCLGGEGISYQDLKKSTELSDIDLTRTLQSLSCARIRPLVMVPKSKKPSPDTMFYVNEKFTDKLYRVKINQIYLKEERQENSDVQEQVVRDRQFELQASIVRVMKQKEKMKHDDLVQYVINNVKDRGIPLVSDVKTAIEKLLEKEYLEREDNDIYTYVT

T2: Rik1 (S. pombe), Q10426
T2 chain: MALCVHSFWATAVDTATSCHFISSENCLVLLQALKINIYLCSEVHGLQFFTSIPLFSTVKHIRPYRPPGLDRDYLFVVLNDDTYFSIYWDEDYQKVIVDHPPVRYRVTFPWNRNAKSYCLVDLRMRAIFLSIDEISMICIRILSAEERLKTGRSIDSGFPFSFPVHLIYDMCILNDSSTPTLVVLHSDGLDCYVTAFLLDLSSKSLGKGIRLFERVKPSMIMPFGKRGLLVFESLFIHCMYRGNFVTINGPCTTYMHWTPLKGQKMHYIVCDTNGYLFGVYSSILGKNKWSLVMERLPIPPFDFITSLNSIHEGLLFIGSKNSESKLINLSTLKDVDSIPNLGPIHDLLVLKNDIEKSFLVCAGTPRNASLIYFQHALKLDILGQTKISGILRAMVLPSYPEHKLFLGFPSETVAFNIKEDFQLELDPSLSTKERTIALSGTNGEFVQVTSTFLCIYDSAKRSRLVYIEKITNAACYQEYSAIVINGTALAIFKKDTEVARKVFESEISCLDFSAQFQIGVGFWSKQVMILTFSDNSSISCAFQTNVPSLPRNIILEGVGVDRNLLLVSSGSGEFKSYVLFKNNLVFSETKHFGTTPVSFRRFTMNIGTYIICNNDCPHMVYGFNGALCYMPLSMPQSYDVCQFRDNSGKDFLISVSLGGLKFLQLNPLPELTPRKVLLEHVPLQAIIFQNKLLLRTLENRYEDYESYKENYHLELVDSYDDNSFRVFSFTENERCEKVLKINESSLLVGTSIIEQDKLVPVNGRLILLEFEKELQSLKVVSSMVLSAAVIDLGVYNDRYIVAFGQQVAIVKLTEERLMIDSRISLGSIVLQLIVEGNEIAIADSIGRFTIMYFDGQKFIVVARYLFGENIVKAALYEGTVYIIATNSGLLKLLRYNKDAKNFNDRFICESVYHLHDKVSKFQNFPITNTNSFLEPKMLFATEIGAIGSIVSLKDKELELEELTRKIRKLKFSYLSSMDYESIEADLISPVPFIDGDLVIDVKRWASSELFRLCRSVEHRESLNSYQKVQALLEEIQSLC

T3: Raf1 (S. pombe), O74910
T3 chain: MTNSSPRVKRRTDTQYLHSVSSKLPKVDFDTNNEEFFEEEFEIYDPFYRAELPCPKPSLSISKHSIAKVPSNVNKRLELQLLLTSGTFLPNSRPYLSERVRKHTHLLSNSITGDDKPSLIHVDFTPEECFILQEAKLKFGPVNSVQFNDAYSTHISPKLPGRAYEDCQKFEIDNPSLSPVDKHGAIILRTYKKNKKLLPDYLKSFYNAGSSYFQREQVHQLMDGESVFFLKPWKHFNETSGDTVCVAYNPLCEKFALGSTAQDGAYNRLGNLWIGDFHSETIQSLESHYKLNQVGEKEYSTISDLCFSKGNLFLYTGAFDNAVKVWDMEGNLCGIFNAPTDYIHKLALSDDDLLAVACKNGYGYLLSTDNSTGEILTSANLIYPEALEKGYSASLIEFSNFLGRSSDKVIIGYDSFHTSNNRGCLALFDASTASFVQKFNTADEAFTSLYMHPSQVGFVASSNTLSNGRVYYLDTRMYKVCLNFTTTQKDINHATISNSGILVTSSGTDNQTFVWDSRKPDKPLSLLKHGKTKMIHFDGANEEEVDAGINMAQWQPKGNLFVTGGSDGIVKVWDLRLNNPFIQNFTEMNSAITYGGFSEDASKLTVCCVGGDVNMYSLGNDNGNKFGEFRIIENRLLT


How the values were obtained:
Assay in all cases: two-hybrid; targeted yeast two-hybrid, GAL4 binding domain and activation domain fusions (Clontech Matchmaker system); interaction read as growth on -Leu, -Trp, -His, -Ade plates
Cul4 (S. pombe) = biological target: T1, Cul4 (S. pombe)
Clr4 (S. pombe), O60016 = settings: remark: other sources report otherwise
Rik1 (S. pombe), Q10426 = biological target: T2, Rik1 (S. pombe), Q10426; settings: remark: other sources report otherwise
Raf1 (S. pombe), O74910 = biological target: T3, Raf1 (S. pombe), O74910; settings: remark: other sources report otherwise

Row | binding (Cul4 (S. pombe)) | binding (Clr4 (S. pombe), O60016) | binding (Rik1 (S. pombe), Q10426) | binding (Raf1 (S. pombe), O74910) | Binder
1 | binds | – | – | – | Raf2 (protein, UniProt O74560 1-636) MPPVRAEKKRKTDLIEQVCVTNKAGELVDLEDVLEYGPYSLTGILSSEKDEQEPLFDESIVLGYSIKISPVWTYNLKDVPEKETMSIWIVTPQRRYGILSPSSEYKAIYEQISEKNRLFYLIKTKFKDDMISGTLEDYDNYIEVLKEKLELPSCFQAILLVQKHIRFLLTQMVATSSLHVWSESPFFIRIRSSYEHLILQINKNIYNARQERKKSKLSSNNPSDNNTTMKSSLNQALTLINLPEQPFSISSPTATPQLGVVKRTSPLRFPLNDIWLSGLRIVDPNIESISLWKRIQVSTSPKHQRYISLQEVCSVIAQQLQITNLEALNKLSSHGETLLQIMHTAFTWRGTKLFNDIKHAIGFRSSVQQARSQFRGYCYDYLFMHCNNGEKTSLHLLRTLICMKLDFSNAQLAAKILFHFLLFDIGSGLSGSDYTYEQYINHSAVAFSFTEEIFEKNFVTVLPDFVKLFSISFGYWPAFSFYDELLKLLRNKYPKVYSSTPNLCDQVWLDRTNLFPCNRSTRSTLPYRPTKLLDLASASSCLSKKETDFKQDTGLYSYNLEKVEALKVSPDLQTGIWSCPVQNCLYFAVCDNPYKPSQVIYDHLLGHVDSKFIFKTPSNSVRSFTNKLEHIMYNIN
2 | – | no binding | no binding | no binding | Raf2, O74560 1-636 (protein) MPPVRAEKKRKTDLIEQVCVTNKAGELVDLEDVLEYGPYSLTGILSSEKDEQEPLFDESIVLGYSIKISPVWTYNLKDVPEKETMSIWIVTPQRRYGILSPSSEYKAIYEQISEKNRLFYLIKTKFKDDMISGTLEDYDNYIEVLKEKLELPSCFQAILLVQKHIRFLLTQMVATSSLHVWSESPFFIRIRSSYEHLILQINKNIYNARQERKKSKLSSNNPSDNNTTMKSSLNQALTLINLPEQPFSISSPTATPQLGVVKRTSPLRFPLNDIWLSGLRIVDPNIESISLWKRIQVSTSPKHQRYISLQEVCSVIAQQLQITNLEALNKLSSHGETLLQIMHTAFTWRGTKLFNDIKHAIGFRSSVQQARSQFRGYCYDYLFMHCNNGEKTSLHLLRTLICMKLDFSNAQLAAKILFHFLLFDIGSGLSGSDYTYEQYINHSAVAFSFTEEIFEKNFVTVLPDFVKLFSISFGYWPAFSFYDELLKLLRNKYPKVYSSTPNLCDQVWLDRTNLFPCNRSTRSTLPYRPTKLLDLASASSCLSKKETDFKQDTGLYSYNLEKVEALKVSPDLQTGIWSCPVQNCLYFAVCDNPYKPSQVIYDHLLGHVDSKFIFKTPSNSVRSFTNKLEHIMYNIN
3 | binds | – | – | – | Raf2-E104A (protein, UniProt O74560 1-636) MPPVRAEKKRKTDLIEQVCVTNKAGELVDLEDVLEYGPYSLTGILSSEKDEQEPLFDESIVLGYSIKISPVWTYNLKDVPEKETMSIWIVTPQRRYGILSPSSAYKAIYEQISEKNRLFYLIKTKFKDDMISGTLEDYDNYIEVLKEKLELPSCFQAILLVQKHIRFLLTQMVATSSLHVWSESPFFIRIRSSYEHLILQINKNIYNARQERKKSKLSSNNPSDNNTTMKSSLNQALTLINLPEQPFSISSPTATPQLGVVKRTSPLRFPLNDIWLSGLRIVDPNIESISLWKRIQVSTSPKHQRYISLQEVCSVIAQQLQITNLEALNKLSSHGETLLQIMHTAFTWRGTKLFNDIKHAIGFRSSVQQARSQFRGYCYDYLFMHCNNGEKTSLHLLRTLICMKLDFSNAQLAAKILFHFLLFDIGSGLSGSDYTYEQYINHSAVAFSFTEEIFEKNFVTVLPDFVKLFSISFGYWPAFSFYDELLKLLRNKYPKVYSSTPNLCDQVWLDRTNLFPCNRSTRSTLPYRPTKLLDLASASSCLSKKETDFKQDTGLYSYNLEKVEALKVSPDLQTGIWSCPVQNCLYFAVCDNPYKPSQVIYDHLLGHVDSKFIFKTPSNSVRSFTNKLEHIMYNIN
